Laboratory results as given in PubChem BioAssay AID1346428 (National Center for Advancing Translational Sciences (NCATS), 2018).
Hit rate of the full screen: of about 48,000 compounds, about 1,200 (2.5%) were called active. Not shown: some 2% with an inconclusive outcome.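 How the source made its calls: active means activation of at least 60% and not above a set upper limit (about 1 call in 100 departs from these limits); inconclusive means activation of 40% to 60%, or above that upper limit; inactive means activation under 40%.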 The list shows a part of the results.

These compounds were tested against Probable G-protein coupled receptor 32 (Homo sapiens) (UniProt O75388) (assay: qHTS for Agonists of Human Resolvin D1 Receptor DRV1). Details: CHO-K1 GPR32 beta-arrestin PathHunter luminescence, 90 min; at 76.9 µM; hits give high values; zero percent set by DMSO-only wells.
Procedure, shortened: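 Cells are plated overnight, treated with compounds in DMSO for 90 minutes at 37 °C, and developed with PathHunter detection reagent for 1 hour before luminescence is read; signal reflects beta-arrestin binding to GPR32 in engineered CHO-K1 cells.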
Further: 0% is about no effect.

Sequence of UniProt O75388 (O75388 whole entry, looked up): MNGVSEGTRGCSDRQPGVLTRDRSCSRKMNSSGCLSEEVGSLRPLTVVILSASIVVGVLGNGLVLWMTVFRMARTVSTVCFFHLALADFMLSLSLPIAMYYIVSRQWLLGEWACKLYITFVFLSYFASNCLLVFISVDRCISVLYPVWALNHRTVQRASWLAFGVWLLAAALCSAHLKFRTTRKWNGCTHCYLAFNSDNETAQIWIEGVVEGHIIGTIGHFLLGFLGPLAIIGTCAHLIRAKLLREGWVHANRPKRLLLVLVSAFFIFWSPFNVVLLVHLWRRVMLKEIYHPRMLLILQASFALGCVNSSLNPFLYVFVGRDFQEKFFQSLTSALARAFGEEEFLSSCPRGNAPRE

Compound	activation
CCOc1ccc2oc(=O)cc(CN3CCN(c4ccc(OC)cc4)CC3)c2c1	inactive: -15%
CCN(C(=O)c1cc2c(s1)-c1c(C)cccc1OC2)c1cc(C)ccc1C	inactive: -3.98%
O=C(Nc1nc2n(n1)C(c1ccc(F)cc1)C=C(c1ccc(Cl)cc1)N2)c1ccco1 (stereo not drawn)	inactive: -3.62%
CCOC(=O)c1ccc(N2C(=O)c3n[nH]c(-c4cccs4)c3C2c2ccc(O)c(OC)c2)cc1 (stereo not drawn)	inactive: 6.81%
CCN(C(=O)CCS(=O)(=O)c1cccc2nsnc12)c1cccc(C)c1	inactive: -12.4%
O=C(NCC12CC3CC(CC(C3)C1)C2)c1cc2nc(-c3ccc(Cl)cc3)cc(C(F)(F)F)n2n1	inactive: -6.83%
COc1ccc(OC)c(NC(=O)Cn2c(=O)oc3cc(S(=O)(=O)NCc4ccccc4)ccc32)c1	inactive: -8.56%
CCc1nc2ccc(C(=O)NCCc3ccc(SC)cc3)cc2nc1CC	inactive: -24%
COC(=O)c1c(SCC(=O)Nc2cccc(C(F)(F)F)c2)[nH]c2ccccc2c1=O	inactive: 1.99%
COc1ccc(NC(=O)C(CC(C)C)NC(=O)C2CCCCC2)c(OC)c1 (stereo not drawn)	inactive: 1.2%
Cc1cc(S(=O)(=O)Nc2cc3c(cc2N2CCOCC2)n(C)c(=O)n3C)ccc1F	inactive: -15.9%
Clc1cccc(-c2nnc(CN3CCN(c4ccccn4)CC3)o2)c1	inactive: 5.9%
CC(C)NC(=O)Cn1ncn2c(cc3cc(F)ccc32)c1=O	inactive: -1.68%
COc1ccc(-n2c(=O)c3ccccc3n(Cc3ccc(F)cc3Cl)c2=O)cc1OC	inactive: 4.17%
CC(=O)OCc1cnc(C)c2oc(=O)c(C(=O)Nc3ccc(F)cc3C)cc12	inactive: -11.2%
Cc1cccc(N2CCN(c3nc4ccccc4c4nc(-c5ccccc5)nn34)CC2)c1C	inactive: 8.49%
CCc1ccccc1N1CC(c2nnc(NC(=O)c3ccco3)s2)CC1=O (stereo not drawn)	inactive: -12.4%
CCN(CC)S(=O)(=O)c1ccc2c(c1)N(CC(=O)N1CCN(c3cc(Cl)ccc3C)CC1)C(=O)CO2	inactive: -8.11%
COc1ccc(NC(=O)C2CCN(C(=O)c3sc4nc[nH]c(=O)c4c3C)CC2)c(OC)c1	inactive: -8.97%
COc1ccc(C2CC(=O)c3cc(-c4nc(-c5ccc(Cl)cc5)cs4)c(=O)[nH]c3C2)cc1 (stereo not drawn)	inactive: 11.2%
CCOc1ccc(CNC(=O)C2CCN(C3=NS(=O)(=O)C(c4ccc(C)cc4)=C3CC)CC2)cc1	inactive: -5.9%
COc1cc(NC(=O)c2cc(-c3ccccc3O)no2)cc(OC)c1OC	inactive: 2.53%
CC(=O)Nc1nonc1-c1nnc(SCC(=O)Nc2ccccc2Cl)n1C	inactive: -20.5%
O=C(NCC(c1ccc(Cl)cc1)N1CCCCC1)c1ccc(F)cc1 (stereo not drawn)	inactive: -18.2%
COc1ccc(C(=O)NCC(c2cccnc2)N2CCN(c3ccc(F)cc3)CC2)cc1 (stereo not drawn)	inactive: -6.54%
COc1cccc(-c2cc(C(F)(F)F)nc(-n3nc(C)c(Br)c3C)n2)c1	inactive: -18.4%
O=C(CSc1ccc2nc(-c3ccccc3)cn2n1)Nc1ccccc1C(F)(F)F	inactive: -7.31%

Compound	activation
Cc1ccc(-n2c(SCc3ccccc3F)nc3[nH]ncc3c2=O)cc1C	inactive: -26%
Cc1cccc(NC(=O)Cn2nc(-c3ccc(Cl)cc3)c3ccccc3c2=O)c1	inactive: -2.07%
COc1ccccc1CNC(=O)c1cccn1-c1nnc(N2CCCC2)s1	inactive: 17.9%
CCOc1cccc2cc(-c3nc4sc(C(=O)Nc5ccc(C)cc5)c(C)c4c(=O)[nH]3)c(=O)oc12	inactive: -6.39%
O=C(Nc1cccc(-c2nc3ncccc3o2)c1)c1ccc(-c2cccc(Cl)c2Cl)o1	inactive: 47.7%
Cc1cccc(NC(=O)C(=O)c2cc(C)n(-c3ccccc3)c2C)c1C	inactive: -26.8%
CCc1nc(-c2cc(S(=O)(=O)N3CCN(c4ccc(F)cc4)CC3)ccc2OC)no1	inactive: -14.6%
COc1ccc(N2CCN(C(=O)CSCc3nc(-c4ccccc4Cl)oc3C)CC2)cc1	inactive: 8.18%
CN(C1CCCCC1)S(=O)(=O)c1ccc(C(=O)Nc2sc3c(c2C(N)=O)CC(C)(C)NC3(C)C)cc1	active: 118%
Cc1cc(O)c(C(c2cccc(F)c2)N2CCC(C)CC2)c(=O)n1Cc1ccco1 (stereo not drawn)	inactive: -10.4%
O=C(Cn1c(=O)n(Cc2cccs2)c(=O)c2cccnc21)Nc1ccccc1F	inactive: -39.5%
O=C(NCCc1ccc(Cl)cc1)c1cccn1-c1nnc(N2CCCCC2)s1	inactive: -16.6%
O=C(Nc1cccc(C(F)(F)F)c1)c1noc2c1CCc1ccccc1-2	inactive: -2.23%
CC(=O)c1cc(-c2ccccc2)n(CC(=O)NC2CCCCCC2)c1C	inactive: 2.61%
Cc1cccc(NC(=O)CSc2nc3c(c(=O)[nH]2)CN(Cc2ccc4c(c2)OCO4)CC3)c1C	inactive: 27.3%
CCc1ccc(-n2c(=O)c3cccnc3n2CC(=O)NCc2ccc(F)cc2)cc1	inactive: -16.5%
CNC(=O)c1ccc(Nc2nnc(-c3ccc(C)c(S(=O)(=O)NC(C)(C)C)c3)c3ccccc23)cc1	inactive: -8.7%
Cn1c(=O)c(=O)n(C)c2cc(S(=O)(=O)N3CCN(c4ccccc4F)CC3)ccc21	inactive: -3.06%
COc1ccccc1NC(=O)CCN1CCC(C(N)=O)CC1	inactive: -3.34%
CCOC(=O)N1CCc2c(sc3c2c(=O)n(Cc2ccccc2)c(=O)n3CC(=O)Nc2c(C)cccc2C)C1	inactive: -4.69%
O=C(NCc1cccc(F)c1)c1ccc(CS(=O)c2ccccc2Cl)o1 (stereo not drawn)	inactive: -8.6%
Cc1cc(O)c(C)c(C)c1O	inactive: -11.4%
CC1=C(C(N)=O)C(c2ccc(C(C)C)cc2)n2nc(SCc3ccccc3F)nc2N1 (stereo not drawn)	inactive: 16.9%
COc1ccc(CCNC(=O)Cn2c(C)c3cnn(-c4ccccc4)c(=O)c3c2C)cc1OC	inactive: -2.24%
Cc1c(CCNC(=O)c2ccc(C(F)(F)F)cc2)sc2nc(-c3ccc(F)cc3)nn12	inactive: -19.3%
COc1ccc(-c2cc(C)no2)cc1S(=O)(=O)Nc1cccc(C(F)(F)F)c1	inactive: 3.34%
